Consider 18 compounds from patent publication US11178870B2 (priority 2017, dated 2021).

The structures appear in SMILES notation.

Common to all, as to assay type: in vivo
One assay deals with Botrytis cinerea. The assay is described as follows: Test Example B: Gray mold on tomato. The note with it: Table 7, Test B.
The next assay deals with Alternaia brassicicola. Description: Test Example C: Alternaria sooty spot on cabbage. The settings on record: Table 7, Test C.
Assay [1] has as its system Blumeria graminis f. sp. hordei. The assay is described as follows: Test Example D: Powdery mildew on barley. The settings on record: Table 7, Test D.
A further assay concerns Puccinia recondita. The assay is described as follows: Test Example E: Brown rust on wheat. The settings on record: Table 7, Test E.
A further assay relates to Plasmopara viticola. The assay is described as follows: Test Example G: Downy mildew on vine. The settings on record: 250 ppm sprayed (2.5 ml/pot) before inoculation; assessed 7 to 10 days after inoculation.

As for `CCn1c(-c2ccc(F)cc2F)c(-n2cc(F)cn2)cc(Br)c1=O` [Compound 252], the “control value, Test B (gray mold on tomato)” value (shortened to “control value, Test B”) with Botrytis cinerea is given as “H (H shows the control value more than 50%)”. The “control value, Test C (Alternaria sooty spot on cabbage)” value (from here on “control value, Test C”) in the assay with Alternaia brassicicola is “H (H shows the control value more than 50%)”. Further, the “control value, Test D (powdery mildew on barley)” value (“control value, Test D” below) in assay [1] is on record as “H (H shows the control value more than 50%)”. For the same compound, the “control value, Test E (brown rust on wheat)” value (shortened to “control value, Test E”) with Puccinia recondita was “H (H shows the control value more than 50%)”. For the same compound, the “control value, Test G (downy mildew on vine)” value (from here on “control value, Test G”) with Plasmopara viticola is listed as “L (L shows the control value of 50% or less)”.

As for `CCn1c(-c2c(F)cc(OC)c(I)c2F)c(-n2cc(Cl)cn2)cc(I)c1=O` [Compound 253], the “control value, Test B” value in the assay on Botrytis cinerea was “H (H shows the control value more than 50%)”. Also, in the assay on Alternaia brassicicola, the “control value, Test C” value is recorded as “H (H shows the control value more than 50%)”. Further, in assay [1], the “control value, Test D” value is “L (L shows the control value of 50% or less)”. The “control value, Test E” value in the assay on Puccinia recondita was “H (H shows the control value more than 50%)”. Moreover, in the assay with Plasmopara viticola, the “control value, Test G” value is “L (L shows the control value of 50% or less)”.

As for `Cc1cnn(-c2ccc(=O)n(CC(F)F)c2-c2ccc(F)cc2F)c1` [Compound 254], the “control value, Test B” value with Botrytis cinerea is “H (H shows the control value more than 50%)”. Moreover, the “control value, Test C” value in the assay on Alternaia brassicicola was “H (H shows the control value more than 50%)”. In addition, the “control value, Test D” value in assay [1] is reported as “H (H shows the control value more than 50%)”. The “control value, Test E” value with Puccinia recondita is listed as “H (H shows the control value more than 50%)”. Besides, the “control value, Test G” value in the assay on Plasmopara viticola was “H (H shows the control value more than 50%)”.

For `Cc1cnn(-c2cc(Cl)c(=O)n(CC(F)F)c2-c2ccc(F)cc2F)c1Cl` [Compound 255], the “control value, Test B” value in the assay with Botrytis cinerea was “H (H shows the control value more than 50%)”. The “control value, Test C” value with Alternaia brassicicola was “H (H shows the control value more than 50%)”. The “control value, Test D” value in assay [1] is reported as “H (H shows the control value more than 50%)”. In addition, the “control value, Test E” value with Puccinia recondita is on record as “H (H shows the control value more than 50%)”. Also, in the assay on Plasmopara viticola, the “control value, Test G” value was “H (H shows the control value more than 50%)”.

Turning to `Cc1cnn(-c2cc(Br)c(=O)n(CC(F)F)c2-c2ccc(F)cc2F)c1Cl` [Compound 256], the “control value, Test B” value in the assay with Botrytis cinerea is on record as “H (H shows the control value more than 50%)”. Besides, the “control value, Test C” value with Alternaia brassicicola is on record as “H (H shows the control value more than 50%)”. Besides, the “control value, Test D” value in assay [1] is given as “H (H shows the control value more than 50%)”. In addition, the “control value, Test E” value with Puccinia recondita is “H (H shows the control value more than 50%)”. In the assay with Plasmopara viticola, the “control value, Test G” value is “L (L shows the control value of 50% or less)”.

`CCn1c(-c2ccccc2F)c(-n2cc(C)cn2)ccc1=O` [Compound 259]: the “control value, Test B” value in the assay with Botrytis cinerea is listed as “L (L shows the control value of 50% or less)”. For the same compound, in the assay on Alternaia brassicicola, the “control value, Test C” value is reported as “H (H shows the control value more than 50%)”. The “control value, Test D” value in assay [1] was “H (H shows the control value more than 50%)”. Besides, the “control value, Test E” value with Puccinia recondita is on record as “H (H shows the control value more than 50%)”. Moreover, the “control value, Test G” value with Plasmopara viticola is listed as “L (L shows the control value of 50% or less)”.

`CCn1c(-c2c(F)cc(F)cc2F)c(-n2cnc(Cl)n2)cc(Cl)c1=O` [Compound 261]: the “control value, Test B” value in the assay on Botrytis cinerea was “H (H shows the control value more than 50%)”. The “control value, Test C” value in the assay with Alternaia brassicicola is recorded as “H (H shows the control value more than 50%)”. The “control value, Test D” value in assay [1] is recorded as “H (H shows the control value more than 50%)”. Further, the “control value, Test E” value in the assay on Puccinia recondita is “H (H shows the control value more than 50%)”. Moreover, the “control value, Test G” value with Plasmopara viticola is recorded as “L (L shows the control value of 50% or less)”.

In the case of `CCn1c(-c2c(F)cc(F)cc2F)c(-n2cnc(Cl)n2)cc(Br)c1=O` [Compound 262], the “control value, Test B” value in the assay with Botrytis cinerea is listed as “H (H shows the control value more than 50%)”. For the same compound, in the assay on Alternaia brassicicola, the “control value, Test C” value is listed as “H (H shows the control value more than 50%)”. Besides, the “control value, Test D” value in assay [1] is listed as “H (H shows the control value more than 50%)”. Besides, the “control value, Test E” value with Puccinia recondita was “H (H shows the control value more than 50%)”. Also, the “control value, Test G” value in the assay on Plasmopara viticola is listed as “L (L shows the control value of 50% or less)”.

On to `CCn1c(-c2ccccc2F)c(-n2ncc(C)c2Cl)cc(Cl)c1=O` [Compound 263], for which, in the assay with Botrytis cinerea, the “control value, Test B” value is reported as “H (H shows the control value more than 50%)”. The “control value, Test C” value in the assay on Alternaia brassicicola is reported as “H (H shows the control value more than 50%)”. Besides, in assay [1], the “control value, Test D” value is “H (H shows the control value more than 50%)”. Moreover, the “control value, Test E” value in the assay with Puccinia recondita is “H (H shows the control value more than 50%)”. The “control value, Test G” value with Plasmopara viticola is recorded as “L (L shows the control value of 50% or less)”.

On to `CCn1c(-c2ccccc2F)c(-n2ncc(C)c2Cl)cc(Br)c1=O` [Compound 264], for which, in the assay on Botrytis cinerea, the “control value, Test B” value was “H (H shows the control value more than 50%)”. For the same compound, the “control value, Test C” value with Alternaia brassicicola was “H (H shows the control value more than 50%)”. For the same compound, the “control value, Test D” value in assay [1] was “L (L shows the control value of 50% or less)”. The “control value, Test E” value in the assay on Puccinia recondita was “H (H shows the control value more than 50%)”. In the assay with Plasmopara viticola, the “control value, Test G” value is recorded as “L (L shows the control value of 50% or less)”.

As for `CCn1c(-c2c(F)cc(OC)cc2F)c(-n2cnc(Cl)n2)cc(Cl)c1=O` [Compound 267], in the assay on Botrytis cinerea, the “control value, Test B” value is “H (H shows the control value more than 50%)”. Besides, the “control value, Test C” value in the assay on Alternaia brassicicola is reported as “H (H shows the control value more than 50%)”. Also, in assay [1], the “control value, Test D” value is reported as “H (H shows the control value more than 50%)”. The “control value, Test E” value in the assay on Puccinia recondita is reported as “H (H shows the control value more than 50%)”. Moreover, the “control value, Test G” value in the assay with Plasmopara viticola was “L (L shows the control value of 50% or less)”.

`CCn1c(-c2ccccc2Br)c(-n2cc(C)cn2)ccc1=O` [Compound 268]: the “control value, Test B” value in the assay with Botrytis cinerea was “L (L shows the control value of 50% or less)”. Further, in the assay with Alternaia brassicicola, the “control value, Test C” value was “H (H shows the control value more than 50%)”. Also, the “control value, Test D” value in assay [1] was “H (H shows the control value more than 50%)”. In addition, in the assay on Puccinia recondita, the “control value, Test E” value is on record as “H (H shows the control value more than 50%)”. Further, the “control value, Test G” value in the assay on Plasmopara viticola is reported as “L (L shows the control value of 50% or less)”.

In the case of `CCn1c(-c2ccccc2Br)c(-n2cc(C)cn2)cc(Br)c1=O` [Compound 269], the “control value, Test B” value with Botrytis cinerea is given as “H (H shows the control value more than 50%)”. In addition, the “control value, Test C” value in the assay on Alternaia brassicicola is on record as “H (H shows the control value more than 50%)”. Moreover, the “control value, Test D” value in assay [1] is given as “H (H shows the control value more than 50%)”. Besides, the “control value, Test E” value in the assay on Puccinia recondita is “H (H shows the control value more than 50%)”. Moreover, the “control value, Test G” value in the assay with Plasmopara viticola is listed as “L (L shows the control value of 50% or less)”.

Turning to `CCn1c(-c2ccccc2Br)c(-n2ncc(C)c2Cl)cc(Br)c1=O` [Compound 271], in the assay with Botrytis cinerea, the “control value, Test B” value is given as “H (H shows the control value more than 50%)”. In the assay with Alternaia brassicicola, the “control value, Test C” value was “H (H shows the control value more than 50%)”. Also, the “control value, Test D” value in assay [1] is on record as “H (H shows the control value more than 50%)”. The “control value, Test E” value in the assay with Puccinia recondita is “H (H shows the control value more than 50%)”. The “control value, Test G” value in the assay on Plasmopara viticola is reported as “H (H shows the control value more than 50%)”.

Consider `CCn1c(-c2ccccc2Br)c(-n2ncc(C)c2Cl)cc(Cl)c1=O` [Compound 272], for which, in the assay with Botrytis cinerea, the “control value, Test B” value is listed as “H (H shows the control value more than 50%)”. Also, the “control value, Test C” value with Alternaia brassicicola is given as “H (H shows the control value more than 50%)”. Besides, the “control value, Test D” value in assay [1] is listed as “H (H shows the control value more than 50%)”. In addition, the “control value, Test E” value with Puccinia recondita is “H (H shows the control value more than 50%)”. Besides, the “control value, Test G” value in the assay with Plasmopara viticola is listed as “L (L shows the control value of 50% or less)”.

Regarding `O=c1ccc(-n2cc(Cl)cn2)c(-c2ccc(F)cc2Br)n1CC(F)F` [Compound 273], the “control value, Test B” value in the assay with Botrytis cinerea is reported as “H (H shows the control value more than 50%)”. In the assay on Alternaia brassicicola, the “control value, Test C” value is recorded as “H (H shows the control value more than 50%)”. Further, the “control value, Test D” value in assay [1] is recorded as “H (H shows the control value more than 50%)”. Besides, the “control value, Test E” value in the assay with Puccinia recondita is “H (H shows the control value more than 50%)”. Also, the “control value, Test G” value in the assay with Plasmopara viticola was “L (L shows the control value of 50% or less)”.

On to `O=c1c(Cl)cc(-n2cc(Cl)cn2)c(-c2ccc(F)cc2Br)n1CC(F)F` [Compound 274], for which, in the assay with Botrytis cinerea, the “control value, Test B” value is “H (H shows the control value more than 50%)”. Moreover, in the assay with Alternaia brassicicola, the “control value, Test C” value is “H (H shows the control value more than 50%)”. Also, in assay [1], the “control value, Test D” value was “H (H shows the control value more than 50%)”. Besides, the “control value, Test E” value with Puccinia recondita is listed as “H (H shows the control value more than 50%)”. The “control value, Test G” value with Plasmopara viticola is given as “L (L shows the control value of 50% or less)”.

As to `O=c1c(Br)cc(-n2cc(Cl)cn2)c(-c2ccc(F)cc2Br)n1CC(F)F` [Compound 275], in the assay on Botrytis cinerea, the “control value, Test B” value is on record as “H (H shows the control value more than 50%)”. Besides, the “control value, Test C” value with Alternaia brassicicola is on record as “H (H shows the control value more than 50%)”. In addition, in assay [1], the “control value, Test D” value was “H (H shows the control value more than 50%)”. In the assay on Puccinia recondita, the “control value, Test E” value is listed as “H (H shows the control value more than 50%)”. Also, in the assay with Plasmopara viticola, the “control value, Test G” value is given as “L (L shows the control value of 50% or less)”.
